Each structure is given as a SMILES string. Several values for one entry are separate records, joined by “and”; a condition that tells them apart may be missing. Identical values can stand only once. Counter-ions that a name gives are not always drawn. ± gives the standard deviation of the averaged measurements. Whole data set: some 2,600 compounds, median “total cell number (DAPI+ nuclei) relative to DMSO vehicle control” near -1.4, cut for the lowest 2% near -23. This is one part of the list.

In this assay the test system is jimpy (Plp1 jimpy) mouse iPSC-derived oligodendrocyte progenitor cells. Description: total cell number (DAPI+ nuclei) relative to DMSO vehicle control (SDs above negative control mean); higher = more surviving cells. To be noted: 10 µM; 3 days. The procedure:
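Primary phenotypic screen of >3,000 bioactive compounds (Selleck L1700 and Sigma LO1280 libraries) at a single dose of 10 µM. Compounds were added to jimpy (Plp1 mutant) mouse iPSC-derived OPCs at the start of thyroid hormone-induced oligodendrocyte differentiation, one well per compound in 384-well plates. After 3 days cells were stained for MBP, Sox10 and DAPI and imaged with an Operetta system. MBP+ oligodendrocyte number and total cell number were expressed as the number of SDs above the mean of the DMSO negative control on the same plate (n=16 control wells per plate). Hits were defined as >=4 SD for oligodendrocytes and >=2 SD for total cells.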
In the case of `N#Cc1ccc(N2CCN(C(=O)COc3ccc4[nH]cc(CCN)c4c3)CC2)cc1` [Donitriptan monohydrochloride], the total cell number is -1.25.

Regarding `O=C(N[C@H]1CN2CCC1CC2)c1ccc(Cl)cc1`, the total cell number was -0.978. The compound `O=[N+]([O-])c1ccc2nc(N3CCNCC3)ccc2c1` [Quipazine, 6-nitro-, maleate] returned a total cell number of -3.81.

In turn, `c1cc2c(cc1[C@H]1OC[C@H]3[C@@H]1CO[C@@H]3c1ccc3c(c1)OCO3)OCO2` [Sesamin] showed a total cell number of -1.28. `C=C(C)[C@H]1CN[C@H](C(=O)O)[C@H]1CC(=O)O` [Kainic acid] yielded a total cell number of 1.03. `O=C(N[C@H]1CN2CCC1CC2)c1cc2ccoc2cn1` yielded a total cell number of -0.512. Take `Cc1cc(O)ccc1Cl` [Chlorocresol]: the total cell number is -0.703.

Compound `O=[N+]([O-])c1cc(O)c(O)c([N+](=O)[O-])c1` [3,5-Dinitrocatechol] yielded a total cell number of -1.21.

In the case of `CN[C@@H]1C[C@@H](c2ccc(Cl)c(Cl)c2)c2ccccc21` [Indatraline hydrochloride], the total cell number is -4.83. Take `Nc1nc(N)nc(NC2CC2)n1` [Cyromazine]: the total cell number turned out to be 0.84. With `CN1[C@@H]2CC[C@H]1C[C@@H](OC(=O)[C@H](CO)c1ccccc1)C2` [L-Hyoscyamine], the total cell number was -0.725. `CN1[C@@H]2CC[C@H]1C[C@@H](OC(=O)[C@H](CO)c1ccccc1)C2` [Hyoscyamine] had a total cell number of -0.387. `Fc1cc(F)c2c(c1)[C@H]1C=CC[C@H]1C(c1cccnc1)N2` (some centres not stated) [Golgicide A] gave a total cell number of -14.2. As for `CC(C)N(CCC(C(N)=O)(c1ccccc1)c1ccccn1)C(C)C` (configuration not stated) [Disopyramide], the total cell number is 0.766. The compound `CC(C)N(CCC(C(N)=O)(c1ccccc1)c1ccccn1)C(C)C` (configuration not stated) [Disopyramide phosphate] showed a total cell number of 1.43. For `O=[N+]([O-])/C=C/c1ccc2c(c1)OCO2`, the total cell number was -7. Then `N=C(N)NN` [Aminoguanidine hydrochloride], with -2.31.

For `N=C(N)NN` [Aminoguanidine hemisulfate], the total cell number was -1.28.

Turning to `C=CCN1C[C@H](C)N([C@H](c2ccc(C(=O)N(CC)CC)cc2)c2cccc(OC)c2)C[C@H]1C`, the total cell number was 2.36. To `CC(Cc1ccc(OCC(=O)O)cc1)NCC(O)c1cccc(Cl)c1` (configuration not stated) belongs -1.76; to `CC(C)=CCOc1c2occc2cc2ccc(=O)oc12` [Imperatorin], -0.604; to `CNCC(O)c1ccc(O)cc1` (racemic) [(±)-Synephrine], -0.771. To `CCCN1CCC[C@@H]2Cc3nc(N)ncc3C[C@H]21` [Quinelorane dihydrochloride] belongs -1.4; to `C=CC[C@]1(O)CC[C@H]2[C@@H]3CCC4=CC(=O)CCC4=C3C=C[C@@]21C` [Altrenogest], -0.73. Then `C1CCc2nnnn2CC1` [Pentylenetetrazole], with -1.24; and `Cn1cnc(CCN)c1` [1-Methylhistamine dihydrochloride], with -0.978; and `CC(Cc1ccc(O)cc1)NCC(O)c1cc(O)cc(O)c1` (configuration not stated) [Fenoterol hydrobromide], with -1.09. In turn, `C/C(=C\c1csc(C)n1)[C@@H]1C[C@@H]2O[C@]2(C)CCC[C@H](C)[C@H](O)[C@@H](C)C(=O)C(C)(C)[C@@H](O)CC(=O)O1` [Epothilone B (EPO906, Patupilone)] registered a total cell number of -2.71. As for `Clc1cnc(Oc2ccc(Oc3ncc(Cl)cc3Cl)cc2)c(Cl)c1`, the total cell number was -1.78. As to `CNCCc1ccc(O)c(O)c1` [N-Methyldopamine hydrochloride], the total cell number is -1.99.

The compound `COC[C@H]1OC(=O)c2coc3c2[C@@]1(C)C1=C(C3=O)[C@@H]2CCC(=O)[C@@]2(C)C[C@H]1OC(C)=O` [Wortmannin] registered a total cell number of -4.55. To `COc1ccc2c(c1)[C@]13CCCC[C@@H]1[C@H](C2)N(C)CC3` [Dextromethorphan hydrobromide monohydrate] belongs -1.39; to `C=C[C@H]1CN2CC[C@H]1C[C@H]2[C@H](O)c1ccnc2ccccc12` [Cinchonidine], -0.104; to `Cc1cccc(C(C)c2c[nH]cn2)c1C` (configuration not stated) [Medetomidine HCl], -1.02. For `CN1[C@@H]2CC(O)C[C@H]1[C@@H]1O[C@@H]12` (some centres not stated) [Scopine], the total cell number was -0.104. `CN1[C@@H]2CC(O)C[C@H]1[C@@H]1O[C@@H]12` (some centres not stated) [Scopine HCl] gave a total cell number of 0.599. `S=C(NC1CCCCC1)N1CCC(c2cnc[nH]2)CC1` [Thioperamide maleate] had a total cell number of -0.714. For `NC(N)=NOCC[C@H](N)C(=O)O` [L-Canavanine], the total cell number was -0.705. `NC(N)=NOCC[C@H](N)C(=O)O` [L-Canavanine sulfate]: the total cell number was -1.25. To `N[C@@H](Cn1oc(=O)[nH]c1=O)C(=O)O` [(+)-Quisqualic acid] belongs 0.0463; to `CC1(C)CC(O)CC(C)(C)N1[O]` [Tempol], 0.127.

Consider `CC(C)(C)c1cc(C(C)(C)C)c2c(c1)C(O)(C(F)(F)F)C(=O)O2` (racemic), for which the total cell number was -1.66. The compound `O=c1[nH]c2ccccc2n1CCCN1CCC(n2c(=O)[nH]c3cc(Cl)ccc32)CC1` [Domperidone] gave a total cell number of -4.04 ± 1.3. For the compound `CCCCC/C=C\C/C=C\C/C=C\C/C=C\CCCC(=O)NCc1ccc(O)c(OC)c1` [Arvanil], the total cell number is -8.09.

On to `CCS(=O)(=O)Nc1cccc(C(=C2CCCCC2)c2cnc[nH]2)c1`, for which the total cell number was 1.08. `CC[C@@H](C(N)=O)N1CCCC1=O` [Levetiracetam] returned a total cell number of -0.467 ± 0.87. On to `O=C(O[C@H]1C[C@H]2CC[C@@H](C1)[N+]21CCCC1)C(O)(c1ccccc1)c1ccccc1` [Trospium chloride], for which the total cell number is 0.365. For `COc1ccc(C(=O)N2CCCC2=O)cc1` [Aniracetam], the total cell number is -2.1 ± 0.41. The compound `CCCCCCCCCCCCCC(=O)O[C@@H]1[C@@H](C)[C@@]2(O)[C@@H](C=C(CO)C[C@]3(O)C(=O)C(C)=C[C@@H]23)[C@@H]2C(C)(C)[C@]12OC(C)=O` [Phorbol 12-myristate 13-acetate] registered a total cell number of -0.106. To `O=C1/C(=C/c2ccccc2)C[C@@]2(O)[C@H]3Cc4ccc(O)c5c4[C@@]2(CCN3CC2CC2)[C@H]1O5` [BNTX maleate salt hydrate] belongs -10.3; to `Nc1ccncc1` [4-Aminopyridine], -1.16. Turning to `C[N+]1(C)CCOC(O)(c2ccc(-c3ccc(C4(O)C[N+](C)(C)CCO4)cc3)cc2)C1` (configuration not stated) [Hemicholinium-3], the total cell number was -1.43. `CN(C)Cc1c[nH]c2ccccc12` [Gramine] had a total cell number of 2.21. As for `C[N+](C)(C)CC#CCN1CCCC1=O` [Oxotremorine methiodide], the total cell number was -1.48. Then `NC(=O)c1ccc(OCC(O)CN2CC=C(c3ccc(F)cc3)CC2)cc1` (configuration not stated), with 7; and `CC(C)(C)OC(=O)NC1[C@H]2CNC[C@@H]12` (some centres not stated), with -1.97; and `NC(=O)CN1CC(O)CC1=O` (configuration not stated) [Oxiracetam], with -1.12. Then `C1=C2CCCN[C@H]2[C@@H]2C[C@H]1[C@H]1CCCCN1C2` [Aloperine], with -2.1; and `CC(N)Cc1c[nH]c2ccc(OCc3cccs3)cc12` (configuration not stated), with -5.05.

Regarding `CN1CCC(c2c[nH]c3ccc(O)cc23)CC1`, the total cell number is -0.705 and -1.42.

`C[N+](C)(C)CCCCCCCCCC[N+](C)(C)C` [Decamethonium dibromide] displayed a total cell number of -1.53.

On to `C[N+](C)(C)CCCCCCCCCC[N+](C)(C)C` [Decamethonium Bromide], for which the total cell number came to 2.19. Compound `C[N+]1(C)[C@@H]2CC[C@H]1C[C@@H](OC(=O)C(CO)c1ccccc1)C2` (some centres not stated) [Atropine methyl bromide] returned a total cell number of -1.18. In turn, `C[N+]1(C)[C@@H]2CC[C@H]1C[C@@H](OC(=O)C(CO)c1ccccc1)C2` (some centres not stated) [Atropine methyl nitrate] showed a total cell number of -1.08. On to `CC1C2Cc3ccc(O)cc3C1(C)CCN2CC1CC1` (single isomer, unassigned; (+)) [(+)-Cyclazocine], for which the total cell number is -1.89. Then `CN1C[C@H](C(=O)N[C@]2(C)O[C@@]3(O)[C@@H]4CCCN4C(=O)[C@H](Cc4ccccc4)N3C2=O)C[C@@H]2c3cccc4[nH]cc(c34)C[C@H]21` [Dihydroergotamine methanesulfonate], with -3.83. `CC(CCc1ccccc1)NC(C)C(O)c1ccc(O)cc1` (configuration not stated) [Nylidrin hydrochloride] yielded a total cell number of -0.269. In turn, `O=C(O)CNC(=O)c1c(O)c2ccccc2n(Cc2ccccc2)c1=O` gave a total cell number of -0.0444. Then `N=C(N)c1ccc(CS(=O)(=O)F)cc1` [4-Amidinophenylmethanesulfonyl fluoride hydrochloride], with -1.52; and `CC[C@@]1(O)C(=O)OCc2c1cc1n(c2=O)Cc2cc3ccccc3nc2-1` [(S)-(+)-Camptothecin], with -9.49. `CC[C@@]1(O)C(=O)OCc2c1cc1n(c2=O)Cc2cc3ccccc3nc2-1` [Camptothecin] returned a total cell number of -22.6. Compound `NC(CCP(=O)(O)O)C(=O)O` (racemic) [(±)-2-Amino-4-phosphonobutyric acid] showed a total cell number of -1.18. In turn, `CN1c2ccccc2C(NCCCCCCC(=O)O)c2ccc(Cl)cc2S1(=O)=O` (configuration not stated) [Tianeptine sodium] showed a total cell number of 3.7. The compound `CCNC(=O)C[C@@H]1N=C(c2ccc(Cl)cc2)c2cc(OC)ccc2-n2c(C)nnc21` displayed a total cell number of -9.9. As to `C#C[C@]1(O)CC[C@H]2[C@@H]3CCC4=Cc5nc6nc7ccccc7n6cc5C[C@]4(C)[C@H]3CC[C@@]21C`, the total cell number was -3.64. On to `Cc1ncc(CNC(=O)N(CCCl)N=O)c(N)n1` [Nimustine hydrochloride], for which the total cell number is -2.66. `C[C@H]1CCC/C=C/[C@@H]2C[C@H](O)C[C@H]2[C@H](O)/C=C/C(=O)O1` [Brefeldin A]: the total cell number is -15.7. For the compound `COc1ccc2[nH]cc(CCN)c2c1` [O-Methylserotonin hydrochloride], the total cell number was -2.98. `N.N.[Cl][Pt][Cl]` [Cisplatin] returned a total cell number of 0.8 ± 2.7. Compound `CC(=O)Nc1ccc(Cc2ccc(NC(C)=O)cc2)cc1` registered a total cell number of 0.667. For `CCCN1C[C@H](CSC)C[C@@H]2c3cccc4[nH]cc(c34)C[C@H]21` [Pergolide methanesulfonate], the total cell number is -1.89. Then `CCCN1C[C@H](CSC)C[C@@H]2c3cccc4[nH]cc(c34)C[C@H]21` [Pergolide mesylate], with -1.49.
